Data from the supplement of paper PMC4604168 (melanoma cell lines).
This is one part of the list. Repeats are few or missing, and single values can be far off.

The compounds below were run on SkMel2 (assay: cell count relative to DMSO control; melanoma cells; higher = more viable cells). Details: library dose: standard library concentration; 72 h.
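Further: cells treated in 1,536-well plates, then fixed and DAPI-stained, with nuclei counted from automated high-throughput microscope images.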

SMILES	cell count [%]
Cn1cc(/C=C2\C(=O)Nc3cccnc32)c2ccccc21 + CCCCCCCCCCCC1=C(O)C(=O)C=C(O)C1=O [Embelin] (first compound 2 µM, partner dose 6 µM)	91.9
COc1ccc2c(c1)CCC1C2CCC2(C)C(NCCCCCCN3C(=O)C=CC3=O)CCC12 (stereo unspecified) + CCCCCCCCCCCC1=C(O)C(=O)C=C(O)C1=O [Embelin] (first compound 2 µM, partner dose 6 µM)	35.5
COc1cc2ncnc(Nc3ccc(Oc4ccccc4)cc3)c2cc1OC + Cn1cc(/C=C2\C(=O)Nc3cccnc32)c2ccccc21 [GW441756] (first compound 10 µM, partner dose 2 µM)	88.6
Cc1cc([N+](=O)[O-])ccc1NS(=O)(=O)c1cc(Cl)ccc1Cl + COc1cc(N2CCC(N3CCN(C)CC3)CC2)ccc1Nc1ncc(Cl)c(Nc2ccccc2S(=O)(=O)C(C)C)n1 [NVP-TAE684] (first compound 5 µM, partner dose 0.4 µM)	59.4
N#Cc1c(O)c2c(-c3ccc(-c4ccccc4O)cc3)csc2[nH]c1=O + COc1cc(N2CCC(N3CCN(C)CC3)CC2)ccc1Nc1ncc(Cl)c(Nc2ccccc2S(=O)(=O)C(C)C)n1 [NVP-TAE684] (first compound 10 µM, partner dose 0.4 µM)	74.7
O=S(=O)(c1ccccc1)N(CC(F)(F)F)c1ccc(C(O)(C(F)(F)F)C(F)(F)F)cc1 + Cc1cc([N+](=O)[O-])ccc1NS(=O)(=O)c1cc(Cl)ccc1Cl [FH535] (first compound 7 µM, partner dose 5 µM)	73.8
COc1ccc(-c2ccc3c(N4CCOCC4)nc(N4C[C@@H](C)O[C@@H](C)C4)nc3n2)cc1CO + Oc1nc(-c2ccc(C(F)(F)F)cc2)nc2c1CSCC2 [XAV939] (first compound 0.1 µM, partner dose 10 µM)	72
COc1ccc(-c2ccc3c(N4CCOCC4)nc(N4C[C@@H](C)O[C@@H](C)C4)nc3n2)cc1CO + O=C1NC(=O)/C(=C/c2ccc(-c3ccc(F)cc3O)o2)S1 [AS252424] (first compound 0.1 µM, partner dose 5 µM)	68.2
COC(=O)c1sccc1S(=O)(=O)Nc1ccc(Nc2ccccc2)cc1OC + Cc1cc([N+](=O)[O-])ccc1NS(=O)(=O)c1cc(Cl)ccc1Cl [FH535] (first compound 5 µM, partner dose 5 µM)	79.4
CCN(CC)CCCCNc1ncc2cc(-c3cc(OC)cc(OC)c3)c(NC(=O)NC(C)(C)C)nc2n1 + Cn1cc(/C=C2\C(=O)Nc3cccnc32)c2ccccc21 [GW441756] (first compound 0.5 µM, partner dose 2 µM)	99
CCN(CC)CCCCNc1ncc2cc(-c3cc(OC)cc(OC)c3)c(NC(=O)NC(C)(C)C)nc2n1 + c1cc(-c2cnn3cc(-c4ccc(OCCN5CCCCC5)cc4)cnc23)ccn1 [Dorsomorphin] (first compound 0.5 µM, partner dose 2 µM)	90.3
CCN(CC)CCCCNc1ncc2cc(-c3cc(OC)cc(OC)c3)c(NC(=O)NC(C)(C)C)nc2n1 + O=C(O)C(=O)Nc1sc2c(c1C(=O)O)CCNC2 [TCS401] (first compound 0.5 µM, partner dose 8.33333 µM)	86.1
COc1ccc(COc2ccc(Cc3cnc(N)nc3N)cc2OC)cc1 + O=S(=O)(c1ccccc1)N(CC(F)(F)F)c1ccc(C(O)(C(F)(F)F)C(F)(F)F)cc1 [T0901317] (first compound 5 µM, partner dose 7 µM)	83.7
O=S(=O)(c1ccccc1)N(CC(F)(F)F)c1ccc(C(O)(C(F)(F)F)C(F)(F)F)cc1 + Cn1cc(/C=C2\C(=O)Nc3cccnc32)c2ccccc21 [GW441756] (first compound 7 µM, partner dose 2 µM)	90.6
Cn1cc(/C=C2\C(=O)Nc3cccnc32)c2ccccc21 + CC(C)CCN1c2nc(Nc3cc(F)c(O)c(F)c3)ncc2N(C)C(=O)C1C [BID1870] (first compound 2 µM, partner dose 1 µM)	73.9
COC(=O)c1sccc1S(=O)(=O)Nc1ccc(Nc2ccccc2)cc1OC + COc1cc2ncnc(Nc3ccc(Oc4ccccc4)cc3)c2cc1OC [SrcI1] (first compound 5 µM, partner dose 10 µM)	93.6
